From PMC9763856
No constants are given. Whether binding was seen depends on the method and setting. Binding seen in cells or lysates may run through a third protein. Some binding calls cover weakened binding; strength is not graded here. For part of these data: Where a sequence is shown, tags or fusion partners need not be part of it.

Amino acid sequences for entries named in this document (tags omitted). A change or cut given only in a name is not applied to a line headed by its entry. Residues count along the entry.
UniProt P70340: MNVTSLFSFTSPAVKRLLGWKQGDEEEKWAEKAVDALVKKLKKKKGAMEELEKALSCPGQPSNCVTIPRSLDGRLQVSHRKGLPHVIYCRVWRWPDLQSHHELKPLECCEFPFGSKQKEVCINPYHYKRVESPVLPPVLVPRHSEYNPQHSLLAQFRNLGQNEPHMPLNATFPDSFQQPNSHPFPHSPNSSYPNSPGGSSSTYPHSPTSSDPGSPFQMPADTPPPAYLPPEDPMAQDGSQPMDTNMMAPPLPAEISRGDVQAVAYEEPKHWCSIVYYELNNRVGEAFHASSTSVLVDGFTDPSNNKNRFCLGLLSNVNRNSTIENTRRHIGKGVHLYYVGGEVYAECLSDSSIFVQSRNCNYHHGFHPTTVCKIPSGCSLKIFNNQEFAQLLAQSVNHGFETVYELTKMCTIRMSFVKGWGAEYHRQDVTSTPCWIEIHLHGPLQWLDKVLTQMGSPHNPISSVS
UniProt Q15797: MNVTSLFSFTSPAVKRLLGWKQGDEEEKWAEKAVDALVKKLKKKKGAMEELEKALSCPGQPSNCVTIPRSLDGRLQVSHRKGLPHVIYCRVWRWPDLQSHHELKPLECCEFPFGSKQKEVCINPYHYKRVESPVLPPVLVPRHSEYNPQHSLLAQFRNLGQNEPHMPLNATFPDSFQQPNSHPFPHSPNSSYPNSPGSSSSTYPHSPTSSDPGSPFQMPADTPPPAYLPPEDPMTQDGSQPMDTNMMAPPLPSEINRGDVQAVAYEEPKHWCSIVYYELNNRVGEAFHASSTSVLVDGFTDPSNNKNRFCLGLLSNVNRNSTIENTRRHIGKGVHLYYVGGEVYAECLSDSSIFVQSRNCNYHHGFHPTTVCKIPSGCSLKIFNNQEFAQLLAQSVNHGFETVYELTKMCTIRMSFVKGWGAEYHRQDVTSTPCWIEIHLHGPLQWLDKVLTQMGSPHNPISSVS
GST-SMAD1 MH1 domain: residues 12-136 of Q15797
GST-SMAD1 MH2 domain: residues 271-465 of Q15797
UniProt Q9HCE7: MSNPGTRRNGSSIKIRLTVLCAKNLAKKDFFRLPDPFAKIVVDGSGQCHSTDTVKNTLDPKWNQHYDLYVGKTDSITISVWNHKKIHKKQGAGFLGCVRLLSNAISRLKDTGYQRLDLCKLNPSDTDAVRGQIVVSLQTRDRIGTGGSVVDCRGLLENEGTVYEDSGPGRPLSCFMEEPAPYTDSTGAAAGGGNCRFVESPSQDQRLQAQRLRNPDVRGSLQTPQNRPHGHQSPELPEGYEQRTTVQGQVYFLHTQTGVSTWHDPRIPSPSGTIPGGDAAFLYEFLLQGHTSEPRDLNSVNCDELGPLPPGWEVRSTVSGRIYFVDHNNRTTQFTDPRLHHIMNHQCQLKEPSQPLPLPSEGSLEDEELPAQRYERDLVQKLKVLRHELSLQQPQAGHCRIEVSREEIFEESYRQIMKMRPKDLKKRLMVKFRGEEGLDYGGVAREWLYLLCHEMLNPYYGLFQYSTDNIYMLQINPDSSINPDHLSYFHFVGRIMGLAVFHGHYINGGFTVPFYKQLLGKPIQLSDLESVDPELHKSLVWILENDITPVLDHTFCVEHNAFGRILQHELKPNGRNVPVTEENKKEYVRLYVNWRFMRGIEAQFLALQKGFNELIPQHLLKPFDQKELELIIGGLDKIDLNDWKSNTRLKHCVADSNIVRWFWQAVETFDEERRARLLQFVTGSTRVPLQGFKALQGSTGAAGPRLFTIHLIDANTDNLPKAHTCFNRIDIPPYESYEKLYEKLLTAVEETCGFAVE
UniProt Q9CUN6: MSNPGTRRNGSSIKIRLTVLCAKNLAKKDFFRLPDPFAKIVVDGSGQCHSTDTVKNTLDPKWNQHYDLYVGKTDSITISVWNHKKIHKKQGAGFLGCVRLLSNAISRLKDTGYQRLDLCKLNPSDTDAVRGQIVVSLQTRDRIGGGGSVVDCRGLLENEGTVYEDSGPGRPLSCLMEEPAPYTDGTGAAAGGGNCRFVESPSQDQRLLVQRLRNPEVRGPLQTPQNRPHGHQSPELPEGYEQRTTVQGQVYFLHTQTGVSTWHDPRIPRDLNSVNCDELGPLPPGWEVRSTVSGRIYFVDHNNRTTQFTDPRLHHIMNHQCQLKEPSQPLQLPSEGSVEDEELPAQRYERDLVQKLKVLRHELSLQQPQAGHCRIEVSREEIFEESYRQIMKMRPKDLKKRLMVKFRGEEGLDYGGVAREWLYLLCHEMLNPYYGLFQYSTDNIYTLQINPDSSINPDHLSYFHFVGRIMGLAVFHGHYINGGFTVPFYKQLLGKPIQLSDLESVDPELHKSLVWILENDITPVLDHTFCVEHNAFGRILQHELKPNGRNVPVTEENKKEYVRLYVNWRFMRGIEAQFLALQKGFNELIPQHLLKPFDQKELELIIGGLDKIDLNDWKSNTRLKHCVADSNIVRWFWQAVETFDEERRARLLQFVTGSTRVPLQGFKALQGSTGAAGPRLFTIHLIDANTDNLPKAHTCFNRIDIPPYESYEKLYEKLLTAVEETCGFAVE

Tests used:
[1] = molecular target: T1, Flag-tagged TAPT1 (human Transmembrane anterior posterior transformation 1) (human) (UniProt Q6NXT6); assay: co-IP; HEK293T cells transfected with Flag-tagged TAPT1; Flag immunoprecipitates blotted for endogenous proteins
T1 sequence: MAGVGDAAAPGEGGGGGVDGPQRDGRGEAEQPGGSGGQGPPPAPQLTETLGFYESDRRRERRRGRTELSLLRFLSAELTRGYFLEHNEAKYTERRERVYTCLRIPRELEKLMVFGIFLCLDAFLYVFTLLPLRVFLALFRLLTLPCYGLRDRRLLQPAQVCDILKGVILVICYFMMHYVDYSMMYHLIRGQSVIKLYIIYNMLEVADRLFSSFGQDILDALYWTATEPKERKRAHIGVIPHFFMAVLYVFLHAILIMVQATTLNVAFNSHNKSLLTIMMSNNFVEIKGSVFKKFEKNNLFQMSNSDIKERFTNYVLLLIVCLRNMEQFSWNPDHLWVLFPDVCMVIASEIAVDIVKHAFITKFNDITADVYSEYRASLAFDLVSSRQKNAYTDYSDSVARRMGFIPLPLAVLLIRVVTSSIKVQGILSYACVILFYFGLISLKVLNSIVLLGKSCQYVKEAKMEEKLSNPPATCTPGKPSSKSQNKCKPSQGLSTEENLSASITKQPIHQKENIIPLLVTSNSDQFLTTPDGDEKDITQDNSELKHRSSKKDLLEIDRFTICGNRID

[2] = molecular target: T2, exogenous TAPT1 of the two-step IP (human) (UniProt Q6NXT6); assay: co-IP; two-step IP from HEK293T cells transfected with SMAD1, SMURF1-CA and TAPT1: anti-Flag IP, elution with Flag peptides, then anti-HA IP, Western blot
T2 sequence: T1 sequence

[3] = molecular target: endogenous SMAD1 in C2C12 cells (mouse (endogenous in C2C12)) (UniProt P70340); assay: co-IP; endogenous proteins in whole C2C12 lysates (IP lysis buffer: 50 mM Tris pH 7.5, 150 mM NaCl, 1 mM EDTA, 10% glycerol, 1% Triton X-100), protein A/G agarose; anti-SMAD1 antibody for immunoprecipitation (Fig. 3H, 5J); cells with or without 100 ng/ml BMP2 for 1 h; WT or Tapt1+/- cells
[4] = molecular target: endogenous SMAD1 in C2C12 cells (mouse (endogenous in C2C12)) (UniProt P70340); assay: co-IP; separated cytoplasmic and nuclear fractions of C2C12 cells with or without BMP2, immunoprecipitated with an anti-SMAD1 antibody
[5] = molecular target: endogenous SMAD1 in C2C12 cells (mouse (endogenous in C2C12)) (UniProt P70340); assay: co-IP; endogenous proteins in whole C2C12 lysates (IP lysis buffer: 50 mM Tris pH 7.5, 150 mM NaCl, 1 mM EDTA, 10% glycerol, 1% Triton X-100), protein A/G agarose; anti-SMAD1 antibody for immunoprecipitation (Fig. 3H, 5J); cells with or without 100 ng/ml BMP2 for 1 h; WT or Tapt1+/- cells; remark: listed apart in the source
[6] = molecular target: GST-SMAD1 MH1 domain (UniProt Q15797); assay: pull-down; GST fusion proteins expressed by bacteria incubated with lysates of HEK293T cells transfected with Flag-TAPT1; only the target purified
[7] = molecular target: GST-SMAD1 MH2 domain (UniProt Q15797); assay: as above
[8] = molecular target: GST-SMURF1 (UniProt Q9HCE7); assay: as above
[9] = molecular target: GST-tagged SMAD1 (UniProt Q15797); assay: as above
[10] = molecular target: endogenous SMAD1 in HEK293T cells (human (endogenous in HEK293T)) (UniProt Q15797); assay: co-IP; endogenous SMAD1 immunoprecipitated from HEK293T cells, control or transfected with Flag-TAPT1 at various doses; blotted for endogenous SMURF1 and Flag-TAPT1
[11] = molecular target: Flag-SMAD1 (UniProt Q15797); assay: co-IP; HEK293T cells transfected with Flag-SMAD1 or Flag-SMAD1-SM; lysates immunoprecipitated and blotted for SMURF1 and TAPT1

Q: How did the binding [1] turn out when “endogenous SMURF1 (SMAD ubiquitin regulatory factor 1) in HEK293T cells (from UniProt Q9HCE7 1-757) (enzyme)” was run?
A: The binding was “binds”.

Q: Which binding [1] does the source give for “endogenous SMAD1 in HEK293T cells (from UniProt Q15797 1-465)” here?
A: Its binding is “binds”.

Q: “exogenous SMAD1 of the two-step IP (from UniProt Q15797 1-465)” was tested. Which binding [2] did it give?
A: Its binding is “binds”.

Q: For “endogenous SMURF1 in C2C12 cells (from UniProt Q9CUN6 1-731) (enzyme)”, which binding [3] is on record?
A: Its binding is “binds”.

B1: endogenous TAPT1 in C2C12 cells (protein, UniProt Q4VBD2 1-564)
chain: MAGVCDAAAPGEGGGGGADGPERTGRGEAEQPGGGGHGPAPQHTETLGFYESDRRREKRRGRAELSLLRFLSAELTRGYFLEHNEAKYTERRERVYTCMRIPRELEKLMFFGIFLCLDAFLYVFTLLPLRVFLALFRLLTLPCYGLRDRRLLQPAQVCDILKGVILVICYFMMHYVDYSMMYHLIRGQSVIKLYIIYNMLEVADRLFSSFGQDILDALYWTATEPKERKRAHIGVIPHFFMAVLYVFLHAILIMVQATTLNVAFNSHNKSLLTIMMSNNFVEIKGSVFKKFEKNNLFQMSNSDIKERFTNYVLLLIVCLRNMEQFSWNPDHLWVLFPDVCMVIASEIAVDIVKHAFITKFNDITADVYSEYRASLAFDLVSSRQKNAYTDYSDSVARRMGFIPLPLAVLLIRVVTSSIKVQGILSYACVILFYFGLISLKILNSIVLLGKSCQYVKEAKMEEKLFNPPPASTPGKPSSKSQSKGKPSQGLSTEENLSASVTSQPGHQKENVIPLLVTSNSDQFLTTPDGDEKDITQENSELKHRSSKKDLLEIDRFTICGNRID
Q: Which results are given for B1?
A: binding [4]: binds; binding [5]: binds

B2: Flag-tagged TAPT1 (human Transmembrane anterior posterior transformation 1) (protein, UniProt Q6NXT6 1-567)
chain: T1 sequence
Q: How did the binding [6] turn out when B2 was run?
A: Its binding is “binds”.

Q: And the binding [7]?
A: The binding was “no binding”.

Q: And the binding [8]?
A: The binding was “binds”.

Q: What about the binding [9] of the same molecule?
A: The binding was “binds”.

Q: And the binding [10]?
A: The binding was “binds”.

B3: TAPT1 in HEK293T cells transfected with Flag-SMAD1 or Flag-SMAD1-SM (protein, UniProt Q6NXT6 1-567)
chain: T1 sequence
Q: B3 was tested. Which binding [11] did it give?
A: Its binding is “binds”.
